According to PubChem BioAssay (NCI):
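These data come from cells grown in 96-well plates and exposed to compound for 48 hours at five concentrations. Here, GI50 denotes the concentration required for 50% inhibition of growth. TGI: total growth inhibition.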

These molecules were tested on NCI-H322M lung (assay: growth of human tumour cells (NCI), 48 h).
With `O=C1C2CN(Cc3ccccc3)CC1CN(CC1CC1)C2` the TGI was over 100 µM.
`Cc1nc2c(o1)C(=O)c1ccccc1C2=Nc1ccc(N2CCOCC2)cc1` showed a TGI of 31.6 µM.
In the case of `CN1CCN(CCCCN2c3ccccc3Sc3cc(N=[N+]=[N-])ccc32)CC1`, the TGI is reported as 5.26 µM.
Molecule `CCS(=O)(=O)Nc1cccc(Nc2c3cccc(C)c3nc3c(C)cccc23)c1OC` has a GI50 of 9.05 µM and a TGI of over 61.1 µM.
`OC1C2CCC1C1C3C=CC(C3)C21` (configuration not stated) was tested, and the TGI was over 100 µM.
`CC(=O)N1CC(=O)N2C(=O)/C(=C/c3ccc(Cl)cc3)N=C12` showed a TGI of over 100 µM.
`COc1ccc(CNc2nc3cc(N)cc(N)c3nc2-c2ccccc2)cc1` was tested, and the GI50 was 23 µM and the TGI was 52 µM.
`C=CN(C)S(C)(=O)=O` was tested, and the GI50 was over 100 µM and the TGI was over 100 µM.
In the case of `C/C(=C\COc1c2c(cc3c1CCO3)OC1(C=C2)OC(CC/C(C)=C/COc2c3ccoc3cc3oc(=O)ccc23)C(C)(C)O1)CCC(O)C(C)(C)O` (configuration not stated), the GI50 is reported as over 100 µM and the TGI is reported as over 100 µM.
With `COc1cc(-c2nn(-c3cccc(NC(=O)c4ccc(N5CCOCC5)c(C(F)(F)F)c4)c3)cc2-c2ccncc2)ccc1Cl` the GI50 was 0.553 µM and the TGI was 97.1 µM.
`Cc1cc(O)cc(C)c1/C=C/c1cncc(-c2nn[nH]n2)c1` gave a GI50 of over 25 µM and a TGI of over 25 µM.
`C=C1C(=O)O[C@@H]2C1C[C@@H](O)C(=C)CC/C=C(\C)CCC[C@H](C)[C@H]2OC(C)=O` (some centres not stated) showed a GI50 of 14.6 µM and a TGI of 29.1 µM.
For `COC(=O)[C@H](Cc1ccc(O)cc1)NC(=O)[C@@H](OC)[C@@H]1Cc2cc3cc(OC4CC(OC5CC(O)C(O)C(C)O5)C(O)C(C)O4)c(C)c(O)c3c(O)c2C(=O)[C@H]1OC1CC(OC2CC(OC3CC(C)(O)C(O)C(C)O3)C(O)C(C)O2)C(O)C(C)O1` (some centres not stated), the GI50 was 0.107 µM and the TGI was 5.87 µM.
For `O=C(Nc1ccc(Cl)c(Cl)c1)N1N=C2c3ccccc3CCC2C1c1ccc(Cl)cc1` (configuration not stated), the TGI was over 100 µM.
With `CSCCOC(=O)C(=[N+]=[N-])c1ccc([N+](=O)[O-])cc1` the TGI was over 100 µM.
`O=C(O)[C@@H]1NC[C@H]2C(Br)=NO[C@H]21` showed a TGI of over 100 µM.
In the case of `O=c1[nH]c(=O)n(C2CC(O)C(CO)O2)cc1OCC1CCCCC1` (configuration not stated), the TGI is reported as over 100 µM.
In the case of `Nc1c(C(=O)c2ccc(CCCN3CCOCC3)cc2)cnn1-c1ccc(F)cc1`, the GI50 is reported as over 25 µM and the TGI is reported as over 25 µM.
Molecule `COc1ccc2c(c1OC)OCC(CN(C)C)C2=O` (configuration not stated) has a TGI of over 100 µM.
In the case of `CCN(CC)CCCC(C)N=c1cc(Nc2cc(=NC(C)CCCN(CC)CC)c3cc(OC)ccc3o2)oc2ccc(OC)cc12` (configuration not stated), the GI50 is reported as 1.1 µM and the TGI is reported as 3.14 µM.
In the case of `COC(=O)/C=C(\S/C(=N\n1cc(C(=O)OC)c(C(=O)OC)c1-c1ccc(C)cc1)c1ccc(C)cc1)C(=O)OC`, the TGI is reported as over 58.1 µM.
`CSc1ncnc2c1ncn2C1OC(CO)C(O)OC1O` (configuration not stated) was tested, and the TGI was 15.1 µM.
`Fc1cccc2c1cc1ccc3cccc4ccc2c1c34` showed a TGI of over 100 µM.
In the case of `c1ccc(C(=NNc2cnc3ccccc3n2)c2ccccn2)cc1`, the TGI is reported as over 51.5 µM.
With `COC1CC(NC(=O)C(F)(F)F)C(OC(C)=O)C(C)O1` (configuration not stated) the TGI was over 100 µM.
`CC[C@]12C=CCN3CC[C@@]4(c5cc(Br)c(OC)cc5N(C)[C@H]4[C@@](O)(C(=O)N[C@@H](Cc4ccc(O)cc4)C(=O)OC)[C@@H]1O)[C@@H]32` gave a TGI of 46.2 µM.
`Cc1cc(C)nc(SCCc2cccc[n+]2C)n1` gave a TGI of over 100 µM.
`COCn1c(C)c(C)c2c(=O)oc(N(C)C)nc21` was tested, and the TGI was over 100 µM.
Work on `C[C@H](CCCNCCCNCCCN)[C@H]1CC[C@H]2[C@@H]3[C@H](OCCCN)C[C@H]4C[C@H](OCCCN)CC[C@]4(C)[C@H]3C[C@H](OCCCN)[C@]12C` yielded a GI50 of 2.1 µM and a TGI of 30.7 µM.
`CC(=O)NNC(=O)C1CCCCN1` (configuration not stated) gave a TGI of over 100 µM.
With `O=C(/C=C/c1ccccc1)N1CCCCC1` the TGI was over 100 µM.
`C1=NCCNCCNCCN=Cc2ccccc2OCc2cccc(n2)COc2ccccc21` gave a TGI of over 100 µM.
`C=C(C)[C@@H]1CC[C@]2(CO)CC[C@]3(C)[C@H](CC[C@@H]4[C@@]5(C)CCC(NCCc6ccc(O)cc6)C(C)(C)[C@@H]5CC[C@]43C)[C@@H]12` (some centres not stated) showed a GI50 of 1.45 µM and a TGI of 2.81 µM.
`Clc1ccc(-c2ccc(-c3nn4c(CNc5ccccc5)nnc4s3)o2)c(Cl)c1` was tested, and the TGI was over 100 µM.
Molecule `N#CCC(=O)N/N=C(\C(=O)Nc1ccc(Cl)c(Cl)c1)C1CN(c2ccccc2)N=C1N` (configuration not stated) has a TGI of over 100 µM.
Work on `CCCCCCc1nc2nc(Cl)c(Cl)nc2[nH]1` yielded a GI50 of over 100 µM and a TGI of over 100 µM.
With `CC(C)(C)OC(=O)NC(CO)c1cccc(OCc2ccccc2)c1` (configuration not stated) the TGI was over 100 µM.
Work on `Cc1ccc(/C=C2\Cc3cccc(C)c3C2=O)c(C(=O)O)c1` yielded a TGI of over 100 µM.
Molecule `O=C(NN=C1CCCCC1)c1[nH]c2ccc(F)cc2c1-c1ccccc1` has a GI50 of over 100 µM and a TGI of over 100 µM.
`COc1c(C)cc2c(c1O)C1NC(C2)[C@H](O)N2C3COC(=O)[C@@]4(CS[C@@H](c5c(OC(C)=O)c(C)c6c(c53)OCO6)C12)NCCC1=C4NC2C=CC=CC12` (some centres not stated) was tested, and the TGI was under 0.01 µM.
`NCCC(=O)N[C@@H](Cc1cc(O)c(O)c(SCC(NC(=O)CC[C@H](N)C(=O)O)C(=O)NCC(=O)O)c1)C(=O)O` (some centres not stated) showed a TGI of over 50 µM.
Molecule `C/C(=C(\c1ccc(OCCN2CCCCCC2)cc1)c1ccc(OC(=O)Cc2ccccc2)cc1)c1ccc(Cl)cc1` has a GI50 of 4.29 µM and a TGI of 14.4 µM.
Molecule `COc1ccc(-c2cc(-c3ccc(O)cc3)nc3n[nH]c(N)c23)cc1` has a GI50 of 24.3 µM and a TGI of over 100 µM.
`COc1cnc2c(c1)C(=O)c1c-2n(CCCNC(C)C)c(=O)c2cc(F)ccc12` showed a GI50 of 0.315 µM and a TGI of 2.39 µM.
Work on `CCOC(=O)c1ccc(Nc2nc3ccccc3nc2C(=O)OCC)cc1` yielded a TGI of over 100 µM.
